The other results are listed elsewhere or left out. The full chains were built here from the parent and the listed change. Inactive controls read about 0.05.
B1: TEV protease; numbered along this chain (parent)
chain: MGESLFKGPRDYNPISSSICHLTNESDGHTTSLYGIGFGPFIITNKHLFRRNNGTLVVQSLHGVFKVKDTTTLQQHLVDGRDMIIIRMPKDFPPFPQKLKFREPQREERICLVTTNFQTKSMSSMVSDTSCTFPSGDGIFWKHWIQTKDGQCGSPLVSTRDGFIVGIHSASNFTNTNNYFTSVPKNFMELLTNQEAQQWVSGWRLNADSVLWGGHKVFMVKPEEPFQPVKEATQL

Variants of: B1
Test: raw area under fraction-flipped curve 0-4 h after induction (AUC4h, not background-subtracted), DNA-recorder readout of cleavage of the substrate (dimensionless); higher = more cleavage of the substrate by the protease variant
Conditions: temperature: 34 °C; time window: 0-4 h after rhamnose induction
Method: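 In vivo DNA recorder in E. coli TOP10(DE3) ΔrhaA at 34 °C. Each TEVp single-site mutant (parent TEVp 0) is paired with a single-site variant of the 7-mer TEVs (canonical ENLYFQ|S). The substrate sits between flexible linkers in a Bxb1-sfGFP-TEVs-SsrA fusion, so cleavage stabilises Bxb1 and speeds flipping of a recombination array, read by NGS. The value is the raw area under the fraction-flipped curve over 0-4 h after rhamnose induction (AUC4h), with ≥20 reads per time point. It is not background-subtracted; inactive controls average about 0.047.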
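Further: Bxb1 expression induced with 0.2% (w/v) L-rhamnose at OD600 near 0.5, cultures sampled hourly, flipped fraction per protease–substrate barcode pair counted by paired-end Illumina sequencing.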

| Variant | area with substrate ENLDFQS | area with substrate ENLEFQS | area with substrate ENLFFQS | area with substrate ENLHFQS | area with substrate ENLIFQS | area with substrate ENLKFQS | area with substrate ENLMFQS | area with substrate ENLNFQS | area with substrate ENLPFQS | area with substrate ENLQFQS | area with substrate ENLRFQS | area with substrate ENLSFQS | area with substrate ENLTFQS | area with substrate ENLVFQS | area with substrate ENLWFQS | area with substrate ENLGFQS | area with substrate ENLLFQS | area with substrate ENLCFQS |
| --- | --- | --- | --- | --- | --- | --- | --- | --- | --- | --- | --- | --- | --- | --- | --- | --- | --- | --- |
| Q234N | 0.0622 | 0.0683 | 0.0677 | 0.0661 | 0.0711 | 0.0725 | 0.0893 | 0.0696 | 0.0626 | 0.0757 | 0.0823 | 0.0655 | 0.0771 | 0.093 | 0.0727 | – | – | – |
| P134G | 0.0569 | 0.059 | 0.0753 | – | 0.0628 | 0.0718 | 0.0425 | – | 0.0594 | 0.0312 | 0.0478 | – | – | – | – | 0.028 | 0.0388 | – |
| F65L | 0.065 | 0.063 | 0.0859 | – | 0.0691 | – | – | 0.0602 | – | 0.0476 | 0.0713 | – | – | – | – | – | – | – |
| P89N | 0.0623 | 0.0689 | 0.069 | – | – | 0.0651 | – | 0.0553 | 0.059 | 0.054 | 0.0807 | – | 0.0404 | 0.0796 | 0.0631 | – | – | – |
| F226M | 0.0604 | 0.0582 | 0.0875 | 0.0735 | – | 0.0801 | – | 0.0611 | – | – | 0.0669 | 0.0741 | – | – | – | – | – | 0.058 |
| Q227L | 0.0519 | 0.0607 | 0.0836 | – | 0.0594 | 0.0809 | – | 0.0605 | 0.066 | 0.0652 | 0.066 | 0.0598 | – | – | 0.0642 | – | – | 0.0626 |
| N116S | 0.0727 | 0.0648 | – | 0.0663 | – | 0.075 | – | 0.0673 | 0.0754 | – | 0.0772 | 0.0673 | – | – | – | – | – | – |
| P222F | 0.0601 | 0.0627 | 0.075 | 0.0656 | 0.0565 | 0.067 | 0.0844 | 0.0629 | 0.05 | 0.0622 | 0.0574 | 0.0631 | – | 0.0676 | – | – | 0.077 | 0.0486 |
| F38I | 0.0703 | 0.0552 | – | – | 0.0775 | – | – | – | 0.0649 | 0.0468 | – | – | – | – | – | – | 0.0728 | – |
| S169W | 0.0562 | 0.0665 | 0.061 | – | 0.0634 | 0.0556 | – | 0.0589 | 0.0646 | – | – | – | 0.0641 | – | 0.0676 | – | – | – |
| L191K | 0.0562 | 0.0389 | 0.0645 | 0.0483 | 0.0601 | 0.0565 | 0.0556 | 0.0469 | 0.0568 | 0.0572 | 0.0515 | 0.0588 | 0.0685 | 0.0516 | 0.059 | – | 0.0568 | – |
| Q146K | 0.0622 | 0.0609 | 0.074 | – | – | 0.0741 | 0.0811 | 0.0695 | 0.067 | 0.0669 | 0.0765 | 0.0765 | 0.0744 | – | 0.0652 | 0.0691 | 0.0788 | – |
| V229F | 0.0685 | 0.0739 | 0.106 | 0.059 | – | 0.0677 | – | 0.0675 | 0.0486 | 0.0739 | 0.0705 | 0.0698 | – | – | – | 0.044 | 0.0658 | 0.0837 |
| E3Q | 0.0548 | 0.0684 | 0.0894 | 0.0587 | 0.123 | 0.0581 | – | 0.0491 | 0.08 | 0.0659 | 0.0638 | – | – | – | – | 0.0631 | – | – |
| E231C | 0.0604 | 0.0686 | 0.0902 | – | – | 0.0916 | – | – | 0.0598 | – | 0.0769 | 0.0651 | – | 0.0559 | – | – | – | 0.0589 |
